# Results as given in PubChem BioAssay AID1347120 (National Center for Advancing Translational Sciences (NCATS), 2019).
# In all, about 390,000 compounds went through this assay and about 930 (0.24%) were called active. Inconclusive results, whose numbers are uncertain, are shown with a selection of clear calls. Calls come from the whole dose curve; as a rule, active = well fitted activation curve with a large enough effect; inconclusive = small, poorly fitted or top-dose-only effect; inactive = no such curve, though single readings can be large or run the other way. Potencies beside an inconclusive call are fits to weak or partial responses and may not hold up.
# Assay: qHTS for Suppressors of FUS Proteinopathy: Primary screen using FUS-linked yeast assay; note: nearly all actives have a fitted effect of over 55% in size;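 for growth rescue (activation): plate controls were DMSO vehicle for no effect and reference control for full effect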
# Conditions: S. cerevisiae FUS-expressing, OD600, 24 h; Potency: growth rescue; growth rescue (activation): at 76.6 µM (top of the series)
# Summary of the method: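 Read-out: OD at 600 nm after 24hr at 30C, reporting rescue of FUS-induced yeast toxicity. Cells at OD 0.005 in galactose (2%) minimal medium; compounds tested in a dilution series; CP55940 titration from 92uM final as control.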
# Potency is the fitted concentration of half-maximal effect; tags give direction and shape of the fitted curve.
Compound,Potency,growth rescue (activation)
O=C(O)c1ccc(COc2ccc(/C=N/NC(=O)c3cccs3)cc2)cc1,"inconclusive: 28.2 µM [activator, partial curve, poor fit]",–
CCCCCn1c(CN2CCN(c3cccc(Cl)c3)CC2)nc2c1c(=O)n(C)c(=O)n2C,"inconclusive: 35.5 µM [activator, single point]",–
CN(C(=O)c1ccc(NC(=O)Cc2ccc(NC(=O)C3CCCN(C(=O)C4CCCCC4)C3)cc2)cc1)C1CCCC1 (stereo unspecified),"inconclusive: 31.6 µM [activator, single point]",–
COc1ccc(OC)c(/C=C/C(=O)Nc2cccc(S(=O)(=O)NC3=NCCCCC3)c2)c1,"inconclusive: 28.2 µM [activator, single point]",–
CCOC(=O)C1=C(CSc2nc3c(cc2C#N)CN(C)CC3)OC(N)=C(C#N)C1c1ccccc1 (stereo unspecified),"inconclusive: 31.6 µM [activator, partial curve, poor fit]",–
O=C(Nc1ccc2ccccc2c1)NC1CCCCN(Cc2cccc(Cl)c2)C1=O (stereo unspecified),inactive,–
CCOC(=O)c1c(C)[nH]c(N=Nc2cccc(C)c2)c1C,"inconclusive: 44.7 µM [activator, single point]",–
CC1C(=O)N(Cc2cn(CCC3OCCO3)nn2)CCS(=O)(=O)N1Cc1ccc(-c2ccc(Cl)cc2)cc1 (stereo unspecified),"inconclusive: 28.2 µM [activator, single point]",–
O=C(COc1ccc(Cl)cc1Cl)Nc1ccccc1F,–,inconclusive: -80.6% [activator]
CN(Cc1ccccc1)C(=O)CSc1c2c(nc3ccc(Cl)cc13)CCCC2,"inconclusive: 25.1 µM [activator, single point]",–
COc1ccc(-n2nc(C(=O)NCCc3ccc(Cl)cc3)c3c4ccccc4n(C)c3c2=O)cc1,inactive,–
CCOC(=O)c1cc2c(ccn2C)n1CC(=O)N1CCN(c2cccc(C(F)(F)F)c2)CC1,"inconclusive: 35.5 µM [activator, single point]",–
CCC1=C(OC(=O)N(CC)CC)N2C(=O)OC(=NCC3CC3)[C@]2(Cc2ccccc2)[C@H]2C1=CC[C@H]1C(=O)N(CC(=O)OC)C(=O)[C@H]12,"inconclusive: 25.1 µM [activator, partial curve]",–
COc1ccc(/C=C/C(=O)c2ccc(OC)cc2OC)c(OC)c1,"inconclusive: 28.2 µM [activator, single point]",–
COc1ccccc1CN(C)C(=O)c1cccc(S(=O)(=O)N2CCCC2)c1,inactive,–
O=C(Nc1ccccc1C(=O)NC(Cc1c[nH]c2ccccc12)C(=O)O)c1ccco1 (stereo unspecified),"inconclusive: 11.2 µM [activator, partial curve, poor fit]",–
O=[N+]([O-])c1ccc(-c2c(-c3ccccc3)ncc3ccc(F)cc23)cc1,inactive,–
CN(C)c1ccc(-c2sc(Nc3ccccc3)n[n+]2-c2ccc(F)cc2)cc1,inactive,–
COc1ccc([C@H]2CC(=O)C=C(c3cc(C)ccc3F)C2)cc1,"inconclusive: 31.6 µM [activator, single point]",–
CCn1c(SCC(=O)Nc2nc3ccc(OC)cc3s2)nc2c1c(=O)n(C)c(=O)n2C,"inconclusive: 7.08 µM [activator, partial curve]",–
COc1ccc(NS(=O)(=O)c2cc(-c3onc(C)c3C)ccc2C)c(OC)c1,"inconclusive: 50.1 µM [activator, single point]",–

Compound,Potency,growth rescue (activation)
CCC1CN(C(=O)N2CCC(C(=O)NCCCc3ccccc3)CC2)c2cc(C)ccc2O1 (stereo unspecified),"inconclusive: 15.8 µM [activator, partial curve, poor fit]",–
O=C(Cn1ncc2c1-c1ccccc1OC2)Nc1cccc(Cl)c1,inactive,–
O=C(CN1C2CCCC1CC(NC(=O)c1ccccc1)C2)NC1CC1 (stereo unspecified),inactive,–
C=CCN1C(=O)C(O)(CC(=O)c2ccc(-n3cccc3)cc2)c2ccccc21 (stereo unspecified),"inconclusive: 11.2 µM [activator, partial curve, poor fit]",–
CCN1C(=O)[C@@H]2[C@@H](c3ccc(-c4ccc5c(c4)OCO5)cc3)N3CCCC[C@@]3(C(=O)OC)[C@@H]2C1=O,"inconclusive: 25.1 µM [activator, single point]",–
COc1cccc(C(C)(O)c2nc(-c3cccc(C(C)C)c3)cs2)c1 (stereo unspecified),"inconclusive: 15.8 µM [activator, partial curve, poor fit]",–
CC(C)CCOc1ccc(C(=O)N2CCN(c3ncccn3)CC2)cc1,"inconclusive: 28.2 µM [activator, single point]",–
CCN(C(=O)[C@@H](C1CC1)[C@@H](O)c1ccc2ccccc2c1)c1ccccc1,"inconclusive: 28.2 µM [activator, single point]",–
O=C(CSc1nnc(COc2ccccc2)n1Cc1ccco1)Nc1ccc2c(c1)OCO2,"inconclusive: 28.2 µM [activator, single point]",–
COC(=O)[C@]12C[C@H](CC(=O)N3CCN(C(=O)C4CC4)CC3)C(=O)N(Cc3ccc4c(c3)OCO4)C1=C[C@H](C(C)C)O[C@@H]2C1CC1,"inconclusive: 20 µM [activator, partial curve]",–
O=C(O)c1ccc(N2C(=O)CSC2=S)cc1,inactive,–
CN/C=C1\C(=O)C(C)(C)Oc2ccc3ccc(=O)oc3c21,inactive,–
Cc1ccc(CCNC(=O)c2cc(-c3ccccc3)n[nH]2)cc1,inactive,–
COC(=O)c1cn(NC(=O)c2cccc(N(C)C)c2)c(=O)c2ccccc12,"inconclusive: 50.1 µM [activator, single point]",–
CCOC(=O)CNC(=O)C1CCCc2c1[nH]c1ccc(Cl)cc21 (stereo unspecified),inactive,–
COc1ccc(C2C(C(C)=O)=C(C)N=c3s/c(=C\c4ccco4)c(=O)n32)c(OC)c1 (stereo unspecified),"inconclusive: 50.1 µM [activator, partial curve, poor fit]",–
O=C(COC(=O)c1cccc(Cl)c1Cl)NCc1cccs1,inactive,–
COc1cc(OC)c2c(-c3cccc(-c4ccc(NC(C)=O)cc4)c3)cc(=O)oc2c1,"inconclusive: 28.2 µM [activator, single point]",–
COc1ccc(N2CCN(C(=O)c3ccc(N4C(=O)NC5CC4(C)Oc4ccccc45)cc3)CC2)cc1 (stereo unspecified),"inconclusive: 11.2 µM [activator, partial curve, poor fit]",–
CCCCn1c(N)c(N(CCOC)C(=O)C2CCN(c3ncnc4sc(C)c(C)c34)CC2)c(=O)[nH]c1=O,"inconclusive: 3.98 µM [activator, full curve]",–
Cc1cc(O)c(C(c2ccccc2)N2CCC(C)CC2)c(=O)n1Cc1ccco1 (stereo unspecified),"inconclusive: 25.1 µM [activator, single point]",–

Compound,Potency,growth rescue (activation)
C[C@H](C[C@H](O)[C@H]1OC1(C)C)C1=C2C[C@H](O)C3[C@@]4(C)CCC(=O)C(C)(C)C4CC[C@]3(C)[C@@]2(C)CC1 (stereo partly specified),"inconclusive: 35.5 µM [activator, single point]",–
CN(C)C(CNC(=O)c1cccc(S(=O)(=O)N2CCN(c3ccccc3)CC2)c1)c1ccccc1 (stereo unspecified),"inconclusive: 28.2 µM [activator, partial curve, poor fit]",–
COc1ccc(CN(Cc2cc3ccc(C)cc3[nH]c2=O)Cc2nnnn2C2CCCC2)cc1,"inconclusive: 35.5 µM [activator, single point]",–
COc1cc2nc(SCc3ccc(Cl)cc3)n3nc(CCn4nc(C)cc4C)nc3c2cc1OC,inactive,–
Cc1ccccc1Cn1ccc2ccc(-c3ccc4ccn(Cc5ccccc5)c4c3)cc21,inactive,–
O=C(Cc1ccccc1)NC(=S)Nc1ccc2oc(-c3ccccc3F)nc2c1,"inconclusive: 8.91 µM [activator, partial curve, poor fit]",–
COc1cc2nc(CN3CCN(S(=O)(=O)c4ccccc4C(F)(F)F)CC3)[nH]c(=O)c2cc1OC,"inconclusive: 39.8 µM [activator, single point]",–
CCOC(=O)CCCNC(=O)OC1CC2CC1[C@H]1CCCCN1[C@H]2Cc1ccccc1 (stereo partly specified),"inconclusive: 28.2 µM [activator, single point]",–
CCC(C)(C)NC(=O)C(c1ccc(OC)cc1)N(Cc1ccccc1)C(=O)CCC(=O)Nc1cc(C)on1 (stereo unspecified),"inconclusive: 15.8 µM [activator, partial curve]",–
COC(=O)CSc1nnc(-c2ccco2)o1,inactive,–
COC1=C[C@H](C(=O)NCc2ccccn2)[C@@]2(C)Cc3ccccc3[C@H]2CC1=O,inactive,–
Cc1csc(NC(=O)CSc2sc3c(O)cc(=O)[nH]c3c2C#N)n1,"inconclusive: 10 µM [activator, partial curve, poor fit]",–
COC(=O)C1=C(C(=O)OC)SC2(S1)C(C(=O)OC)=C(C(=O)OC)SC1=C2c2cccc(C)c2NC1(C)C,"inconclusive: 7.08 µM [activator, full curve, poor fit]",–
COc1ccc(-c2cc([N+](=O)[O-])ccc2OCC(=O)N(C)CC(=O)Nc2ccc(C)cc2)cc1,"inconclusive: 35.5 µM [activator, partial curve, poor fit]",–
Cn1cc(CN2CCC(n3nccc3NC(=O)c3ccccc3Cl)CC2)c2ccccc21,–,inconclusive: -17.7% [activator]
O=C(c1cccc(Cl)c1)N1CCN(c2ccnc3cc(Cl)ccc23)CC1,inactive,–
Fc1ccc(-c2nn(-c3ccccc3)cc2CNCc2ccccc2)cc1,inactive,–
CCC1(C)NC(=O)N(CC(=O)Nc2sc3c(c2C(=O)OC)CCCCC3)C1=O (stereo unspecified),"inconclusive: 50.1 µM [activator, single point]",–
COc1cc(C(=O)Nc2nnc(S(=O)(=O)N(C)c3ccccc3)s2)cc(OC)c1OC,"inconclusive: 28.2 µM [activator, single point]",–
